# Data from PubChem BioAssay AID1159614 (National Center for Advancing Translational Sciences (NCATS), 2016).
# Out of some 45,000 compounds screened, about 65 (0.1%) were called active. Calls follow the shape of the dose curve; as a rule, active = well fitted activation curve with a large enough effect; inconclusive = small, poorly fitted or top-dose-only effect; inactive = no such curve, though single readings can be large or run the other way. This is one part of the list.
# Target: Galactocerebrosidase (Homo sapiens) (UniProt P54803)
# UniProt P54803, sequence (P54803 whole entry, looked up): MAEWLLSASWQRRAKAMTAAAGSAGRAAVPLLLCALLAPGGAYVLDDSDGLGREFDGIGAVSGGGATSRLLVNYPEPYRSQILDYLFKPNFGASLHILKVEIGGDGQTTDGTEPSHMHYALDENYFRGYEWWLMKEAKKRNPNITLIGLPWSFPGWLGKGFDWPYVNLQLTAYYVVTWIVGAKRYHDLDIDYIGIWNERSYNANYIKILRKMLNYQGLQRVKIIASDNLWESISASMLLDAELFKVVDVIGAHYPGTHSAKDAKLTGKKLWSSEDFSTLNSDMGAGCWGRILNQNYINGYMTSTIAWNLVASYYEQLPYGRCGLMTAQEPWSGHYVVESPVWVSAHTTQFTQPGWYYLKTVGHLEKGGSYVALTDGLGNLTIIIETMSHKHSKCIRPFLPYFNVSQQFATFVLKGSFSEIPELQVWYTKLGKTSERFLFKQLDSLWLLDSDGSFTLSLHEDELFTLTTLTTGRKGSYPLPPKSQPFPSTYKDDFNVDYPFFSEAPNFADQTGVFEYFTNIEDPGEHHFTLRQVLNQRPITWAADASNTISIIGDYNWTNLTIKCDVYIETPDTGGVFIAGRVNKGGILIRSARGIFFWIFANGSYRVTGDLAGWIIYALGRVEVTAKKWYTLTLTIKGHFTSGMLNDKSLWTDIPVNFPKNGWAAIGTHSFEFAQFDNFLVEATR
# Assay: A Novel Cell-Based Assay to Identify Small Molecules for B -Galactocerebrosidase; also: 0% is about no effect; nearly all actives have a fitted effect of over 65% in size
# Conditions: 145M-Twi-hGALC-G270D cells (Twitcher mouse brain line with human GALC G270D), HMU-beta-Gal fluorescence, 48 h; series mostly up to 57.5 µM; activation: at the top concentration
# How it was run: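 Fluorogenic HMU-b-Gal hydrolysis (0.1 mM final, pH 5.2 citrate-phosphate with 1 mg/mL sodium taurocholate; carbonate stop buffer) measures mutant GALC activity after compound treatment of live 145M-Twi Twitcher brain cells stably carrying human GALC-G270D, with wild-type GALC line alongside; activation sought.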
Compound,activation,Potency
COc1ccccc1N1CCN(C(=O)CCS(=O)(=O)c2cc(Br)cc3c2N(C(=O)C2CC2)CC3)CC1,inactive: -14.9%,–
CCOC(=O)c1c(C)oc2nc(C)nc(N3CCN(c4ccccc4)CC3)c12,inactive: -13.1%,–
O=C(CSc1nnc(CNC(=O)c2ccccc2)n1-c1cccc(Cl)c1)Nc1ccccc1F,inactive: -21.4%,–
COc1ccc2oc(=O)c(C(=O)NCCc3c(C)[nH]c4ccc(Br)cc34)cc2c1,inactive: 0.922%,–
COc1ccc(CNC(=O)c2ccc(Cn3c(=O)c4cccn4c4cccnc43)cc2)cc1OC,inactive: 4.38%,–
COc1ccc(N2CCN(C(=O)CCNS(=O)(=O)c3ccc4c(c3)CCN4C(=O)C3CC3)CC2)cc1,inactive: -31.2%,–
CCc1ccc(NC(=O)CSc2cn(CC(=O)N3CCCC3)c3ccccc23)cc1,inactive: -18.6%,–
CCOCCCNC(=O)NC(CCC(C)C)c1c(-n2cccc2)sc2c1CCN(C)C2 (stereo not given),inactive: 1.55%,–
O=C(Nc1cc(NC(=O)c2ccccc2Cl)ccc1Cl)c1ccccc1,inactive: -8.34%,–
CCOc1ccccc1CNC(=O)c1ccc2nc(Cc3ccc(OC)cc3)oc2c1,inactive: -31.8%,–
O=C(NCc1cccc(F)c1)C1CCN(C(=O)c2sccc2-n2cccc2)CC1,inactive: -21.8%,–
Cc1cc(C)cc(OCC2CNC(=O)O2)c1 (stereo not given),inactive: -14.2%,–
Cc1ccc(C)c(-c2nc(Cn3c(=O)cc(-c4ccccc4)c4c(C)nn(C)c43)c(C)o2)c1,inactive: -9.98%,–
CC(C)(C)C(=O)CSc1nc2ccsc2c(=O)n1Cc1ccccc1F,inactive: 13%,–
CC(C(O)c1ccccc1)N(C)CCOC(c1ccccc1)c1ccccc1 (stereo not given),inactive: -15.1%,–
Cc1ccc(OCC(=O)Nc2ccc(S(=O)(=O)Nc3ncccn3)cc2)c(C(C)(C)C)c1,inactive: -7.03%,–
CN1CCN(CCCNC(=O)c2cnn(-c3ccccc3)c2-n2cccc2)CC1,inactive: 5.48%,–
O=c1c2sc3ccccc3c2n(Cc2cccc(C(F)(F)F)c2)c(=O)n1Cc1ccco1,inactive: -13.3%,–
Cc1cc(C)cc(Nc2cc(C)nc3nncn23)c1,inactive: -11.6%,–
Cc1cccc(-c2nc3scc(CCNC(=O)c4ccc(Br)o4)n3n2)c1,inactive: -7.65%,–
CNC(=O)C1CCC(Cn2c(=O)c3sccc3n(CC(=O)NCc3cccc(OC)c3)c2=O)CC1 (stereo not given),inactive: -7.07%,–
COc1cccc(C(=O)N2CCc3c([nH]c4ccccc34)C2c2ccc(SC)cc2)c1 (stereo not given),inactive: -0.0597%,–
Cc1ccc(Nc2nnc(-c3cc4c(ccc5ccccc54)oc3=O)s2)cc1,inactive: 4.88%,–
COc1ccc(CNC(=O)CN2C(=O)COc3ccc(S(=O)(=O)NC4CCCC4)cc32)cc1,inactive: 6.71%,–

Compound,activation,Potency
COc1ccc(CCNC(=O)CCc2c(C)nc3cc(-c4ccccc4OC)nn3c2C)c(OC)c1,inactive: -0.22%,–
COc1ccc(/C=C\c2onc(C)c2S(=O)(=O)N2CCC(C(=O)Nc3cccc(Cl)c3)CC2)cc1,inactive: -3.05%,–
COc1ccccc1NC(=O)CSc1nnc2c3ccccc3n(C(C)C)c2n1,inactive: -20.8%,–
CCOC(=O)c1cccc(NC(=O)Cn2c(=O)nc(-c3ccccc3F)c3cc(Cl)ccc32)c1,inactive: -5.79%,–
CCn1c(=O)c2cc(C(=O)N(CC(C)C)CC(C)C)sc2c2ccccc21,inactive: -33.1%,–
CCOc1ccc(CCNC(=O)c2csc3c2CCCCC3)cc1,inactive: 2.24%,–
COc1cccc(CNC(=O)CCCN2C(=O)CCn3nc(-c4cccn4C)cc32)c1,inactive: -11.9%,–
CCN(C(=O)CSc1nc2ccccc2n1CC(=O)NCc1ccc(OC)cc1)c1ccccc1,inactive: -11.6%,–
CCOC(=O)c1ccc(NC(=O)CN2c3ccccc3S(=O)(=O)c3ccccc32)cc1,inactive: -8.34%,–
Cc1ccc2nc(CSc3nnc(NC(=O)c4cccc(Br)c4)s3)cc(=O)n2c1,inactive: 3.24%,–
CCOC(=O)c1cc(-c2ccccc2)n(CCC(=O)NC2CCCCC2)c1C,inactive: -16.4%,–
Cc1ccc(CNc2ncnc3c2nc2n3CCCC2)cc1,inactive: -1.08%,–
COc1ccc(-c2c(C)nn3c(N4CCN(c5ccccc5)CC4)cc(C)nc23)cc1OC,inactive: -7.33%,–
C[C@@H](O)[C@H]1C(=O)N2C(C(=O)O)=C(S[C@@H]3CN[C@H](C(=O)N(C)C)C3)[C@H](C)[C@H]12,–,inactive
COc1ccc(NC(=O)CC2C(=O)N(c3ccc(F)cc3)C(=O)N2Cc2ccc3c(c2)OCO3)cc1 (stereo not given),inactive: -13.3%,–
CCCn1c(=N)c(C(=O)NC2CCCC2)cc2c(=O)n3cccc(C)c3nc21,inactive: -12.4%,–
COc1ccc(/C=C(/C#N)c2nc(-c3ccc(-c4ccccc4)cc3)cs2)cc1OC,inactive: 7.92%,–
COc1cc(NC(=O)CCn2cnc3ccccc3c2=O)cc(OC)c1,inactive: -19.9%,–
CCc1cccc(C)c1NC(=O)c1cc(S(=O)(=O)N2CCOCC2)cn1C,inactive: -0.836%,–
CCOC(=O)c1ccccc1NC(=O)n1ncc2cc(Cl)ccc21,inactive: -8.91%,–
Cc1noc(C)c1S(=O)(=O)Nc1ccc(C(=O)Nc2ccc(Br)cc2)cc1,inactive: -22.4%,–
CCCCOc1ccc(CNC(=O)c2cc3n(n2)CCCN(Cc2ccc(C)cc2)C3=O)cc1,inactive: -11.2%,–
COc1ccc(OCCn2c(C)nc3cc(C)c(C)cc32)cc1,inactive: -7.77%,–
CCCCSCCCNC(=O)c1cn(CC)c2ccc(S(=O)(=O)N3CCCCCC3)cc2c1=O,inactive: 4.16%,–

Compound,activation,Potency
CCOc1cccc(C(=O)Nc2ccc3oc(-c4cccnc4)nc3c2)c1,inactive: -13%,–
C[C@H](NC(CCc1ccccc1)C(=O)O)C(=O)N1CCC[C@H]1C(=O)O (stereo not given in full),inactive: -18.5%,–
CC(C)c1ccc(NC(=O)Cn2nnc(C(=O)NCc3cccs3)c2N)cc1,inactive: -3.92%,–
Fc1ccc(Nc2nc(Nc3ccc(F)cc3)nc(N3CCOCC3)n2)cc1,inactive: -10.7%,–
CCCCn1c(SCC(=O)Nc2ccc(F)cc2)nc2c(sc3ccccc32)c1=O,inactive: -8.41%,–
COc1ccc(C(=O)NCC(c2ccc3c(c2)OCO3)N2CCN(c3ccc(F)cc3)CC2)cc1 (stereo not given),inactive: -16.4%,–
Cc1ccc(N(CC(C)C)S(=O)(=O)c2nnc(NC(=O)c3cccs3)s2)cc1,inactive: -13.3%,–
Cc1ccc2oc3c(c(=O)c2c1)C(c1ccc(OCC(N)=O)cc1)N(Cc1ccc2c(c1)OCO2)C3=O (stereo not given),inactive: -11.1%,–
CNC(=O)CSc1nnc(NC(=O)Nc2ccccc2)s1,inactive: -6.96%,–
O=C(CSc1nnc(-c2ccc(Br)cc2)n1-c1ccccc1)c1ccccc1,inactive: -13.1%,–
CCOc1ccccc1N(CC(=O)Nc1ccc(OC)c(Cl)c1)S(=O)(=O)c1ccccc1,inactive: -16.5%,–
CCOc1ccc(-c2cc(C(=O)N3CCN(c4cccc(C(F)(F)F)c4)CC3)c3ccccc3n2)cc1,inactive: -16.6%,–
COc1ccc(NC(=O)C(=O)NCC2(c3ccccc3)CCCC2)c(OC)c1,inactive: -24.3%,–
COc1ccccc1CNC(=O)Cn1c(=O)ccc2cc(S(=O)(=O)N3CCCC3)ccc21,inactive: -21.5%,–
CC1CCCCN1C(=O)CSc1nnc(-c2ccccc2Cl)o1 (stereo not given),inactive: -9.34%,–
CCOc1ccc(N(CC)S(=O)(=O)N2CCCC(C(=O)NCCc3ccccc3OC)C2)cc1 (stereo not given),inactive: -21.3%,–
COc1ccc(-c2cn3nc(N4CCC(C(=O)Nc5ccc(C)cc5)CC4)sc3n2)cc1,inactive: -8%,–
Cc1cccc(Oc2coc3cc(OCC(=O)NC4CCCCC4)ccc3c2=O)c1,inactive: -24.4%,–
CCOCN(C(=O)Cn1cnc2cc(C)c(C)cc21)c1c(C)cccc1CC,inactive: 2.12%,–
CCOc1ccc(/C=C/c2nc(C#N)c(N3CCN(c4ccccc4)CC3)o2)cc1,inactive: -6.3%,–
COc1ccc(CNC(=O)CN2C(=O)COc3ccc(S(=O)(=O)N4CCOCC4)cc32)cc1,inactive: -19.2%,–
Cc1ccc2oc(-c3cc(NC(=O)c4cccs4)cc(C)c3O)nc2c1,inactive: -11.3%,–
COc1ccc(Br)cc1CNC(=O)C1COc2ccccc2C1 (stereo not given),inactive: -7.22%,–
O=C(Nc1ccc(C(=O)N2CCN(c3ccc(Cl)cc3)CC2)cc1)c1nsc2ccccc12,inactive: -11%,–

Compound,activation,Potency
CCOC(=O)N1CCN(C(=O)CN(c2cc(C)ccc2OC)S(=O)(=O)c2ccc(C)cc2)CC1,inactive: -5.9%,–
CC(C)(C)c1ccc(-c2noc(CCC(=O)Nc3cccc(Cl)c3)n2)cc1,inactive: -12.5%,–
Cc1ccc(-c2nnc(Nc3cccc(C(F)(F)F)c3)c3ccccc23)cc1S(=O)(=O)N1CCOCC1,inactive: -4.59%,–
Cc1cncn1CCc1nc2c3ccccc3nc(SCC(=O)Nc3ccccc3F)n2n1,inactive: -3.36%,–
O=C(c1ccc(CS(=O)(=O)c2c(Cl)cccc2Cl)o1)N1CCN(c2ccccc2)CC1,inactive: -0.508%,–
Cc1ccc(-n2c(SCC(N)=O)nc3c([nH]c4ccccc43)c2=O)cc1,inactive: -2.57%,–
Cc1ccc(Cn2c(C)c(CNC(C)c3ccccc3)c(C(=O)O)c2C)cc1 (stereo not given),inactive: -10.8%,–
Cc1ccc(Cl)cc1N1CCN(c2ncnc3onc(-c4ccc(F)cc4)c23)CC1,inactive: -0.0363%,–
COC(=O)c1sc2cccc(F)c2c1S(=O)(=O)N1CCN(c2ccc(C)cc2C)CC1,inactive: -6.66%,–
CC1CCN(S(=O)(=O)c2nnc(NC(=O)c3cccc(F)c3)s2)CC1,inactive: -19.2%,–
Cc1ccc(NC(=O)c2cc(S(=O)(=O)N3CCCC3)c[nH]2)c(C)c1,inactive: -13.7%,–
Cc1cccc(N2CCN(C(=O)c3ccc4c(c3)c(C)c(C)n4C)CC2C)c1 (stereo not given),inactive: 0.36%,–
COc1ccc(OC)c(S(=O)(=O)NCCc2csc3nc(-c4ccccc4)nn23)c1,inactive: -12.4%,–
COc1ccccc1N1CCN(c2cc(C)nc3nc(-c4ccc(Cl)cc4)nn23)CC1,inactive: -12.7%,–
COc1nc(-c2ccc(C)cc2)ccc1-c1noc(-c2ccc(C(C)(C)C)cc2)n1,inactive: -13.6%,–
CCc1ccc(-n2nc(C)c3c(C(=O)Nc4cc(C)ccc4C)cc(C)nc32)cc1,inactive: -6.8%,–
CCOc1ccccc1CNC(=O)C1CCCN(S(=O)(=O)c2ccc3c(ccn3C)c2)C1 (stereo not given),inactive: -13.9%,–
Cc1ccc(N2CCN(c3nc4c(S(=O)(=O)c5ccc(C)c(C)c5)nnn4c4ccccc34)CC2)c(C)c1,inactive: -3.02%,–
CCc1cccc(C)c1NC(=O)CN(C)S(=O)(=O)c1cccc2nsnc12,inactive: -13.3%,–
Cc1c(C(=O)N(Cc2ccc(N(C)C)cc2)CC2CCCO2)oc2ccc(Br)cc12 (stereo not given),inactive: -13.9%,–
CCc1c(C)c2ccc(O)c(CN3CCN(c4ccccc4)CC3)c2oc1=O,inactive: -16.8%,–
CC(=O)N1CCc2cc(Br)cc(S(=O)(=O)CCC(=O)Nc3ccc(C)cc3Cl)c21,inactive: -14.5%,–
CCOc1ccc2oc(=O)cc(CN3CCN(c4ccc(Cl)cc4)CC3)c2c1,inactive: 6.98%,–
